Measurements from the supplement of paper PMC3334620.
In all, about 33,000 sequences were measured (“E-score (-0.5 to 0.5)”: median about -0.013, highest 2% from about 0.3 on). Some of the results follow.

These sequences were tested against T1, Msn1 (UniProt P22148) (assay: PBM E-score (8-mer binding enrichment) (E-score (-0.5 to 0.5)); higher = stronger / more preferred TF binding; most listed sequences are background and not binding sites). Conditions: protein concentration: 200 nM; construct: GST-full length.
T1 sequence: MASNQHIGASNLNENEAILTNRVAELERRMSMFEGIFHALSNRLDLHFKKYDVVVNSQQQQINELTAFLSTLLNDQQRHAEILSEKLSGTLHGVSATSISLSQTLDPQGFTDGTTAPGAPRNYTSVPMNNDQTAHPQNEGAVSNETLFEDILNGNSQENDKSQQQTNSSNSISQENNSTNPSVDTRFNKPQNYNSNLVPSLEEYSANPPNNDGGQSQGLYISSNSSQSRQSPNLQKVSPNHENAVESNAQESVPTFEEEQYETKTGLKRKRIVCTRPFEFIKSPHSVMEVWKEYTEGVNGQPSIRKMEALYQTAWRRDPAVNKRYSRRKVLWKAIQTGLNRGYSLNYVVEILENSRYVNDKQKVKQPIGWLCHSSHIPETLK
Method: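 Universal 'all 10-mer' protein binding microarrays (Agilent AMADID 015681) probed with GST-tagged S. cerevisiae TFs (full-length or DBD) made by in vitro transcription/translation (PURExpress), about 100-200 nM. Bound TF was detected with fluorescent anti-GST. Each ungapped 8-mer (which stands for itself and its reverse complement) is scored by the PBM enrichment score (E-score), a modified Wilcoxon-Mann-Whitney statistic from -0.5 to +0.5, computed with the Universal PBM Analysis Suite. Scale: above 0.35 generally sequence-specific binding.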

Sequence	PBM E-score
TGAGGAAA	0.0866
CGTGAAGC	-0.311
ACCAACGT	0.117
ACGGCTAC	-0.19
CAGTTAAG	0.0527
CCGGACCC	-0.0546
ATGAAAAA	0.216
AAGGACGC	0.167
AGTTTCAG	-0.152
ACCGGTCT	-0.131
GAGATGCC	-0.00529
ATCAATAC	0.00754
GACAACGA	0.164
TAGGTCGA	0.0604
CCCTTATC	-0.16
GGCCCCTA	-0.302
CTTTAGCC	0.0483
CTGTGAAC	-0.0634
CGTTCGTC	0.108
ATAGTGGA	0.0789
CATCGTGA	-0.0776
ACAAACGG	0.298
AGAGCTCC	-0.268
GTAGGCTA	-0.0319
ATACAACA	0.0611

Sequence	PBM E-score
ATCGGCAG	-0.0545
ACTCACTA	0.0267
ATATTAGC	0.00702
ATAGCGGC	0.0571
AGGTCACG	-0.225
GGTAGGAC	0.238
CCTAGCAC	-0.141
AATGACAC	0.213
ACCACCGC	-0.206
CAATTACA	0.0298
CATAGAGA	0.113
CCGGACAG	0.227
CCCGCCTC	-0.154
CCCGGAAG	-0.0982
AGACGCTA	-0.0941
AATGGCAA	0.181
CGGAAATC	0.118
ACGTTCAC	0.0166
CTGTACAC	-0.0168
ACTATAGC	-0.0316
TAAGATTA	-0.0458
CTCGACGC	0.0992
CCATCTAC	-0.0608
CCAGATGG	-0.255
ATTAATGC	0.0284

Sequence	PBM E-score
CGCAAAGA	-0.0742
GCTGCTCA	-0.105
ATGGATCG	0.0194
CACAAGAG	0.0612
GAATGCAC	-0.00702
ACCCGCTC	-0.299
CACCGCTG	-0.198
AGAACTAC	-0.0862
GAAGCCAA	-0.134
ATGGCTCG	-0.00413
CAGCATGC	-0.113
TGCGCGCA	0.00461
CTCACTCA	0.0343
ATCCTTCC	-0.368
CGACAAGA	0.121
ATAGGGAA	-0.169
GGCACTCA	-0.349
AGCAACTG	0.0149
ACTAAAAT	0.12
TCGGACGA	0.199
CTATTCCA	0.185
GTCCTGAA	0.241
AATCCAGA	0.106
ATGCGGCG	-0.0411
CAGAAGAA	-0.119

Sequence	PBM E-score
AAACTGTT	0.08
AACTCGTG	0.0411
AACATTCT	0.108
CTGGACAC	0.29
AGCCCGGG	-0.089
AATCGCCC	-0.277
AGGATCAT	-0.0592
GCGGGGTA	-0.0904
CTAAATAA	0.155
TACAATGA	0.0558
GGTGAGGA	-0.145
GCAATCAA	0.102
ATTACCCC	0.0887
CCGCGACA	0.299
GCTACTAC	0.0603
ATTTGGAC	0.366
TAGCAAGA	0.0309
AAGCACGT	-0.0893
CGGTCATA	-0.132
ATTCCAAG	-0.0629
GGATGCTA	0.0152
ATGTCCCA	0.485
AATCATAA	0.203
ATGTGGTC	-0.0995
TAAGTGCA	0.11

Sequence	PBM E-score
AGACACTA	0.204
ACCCAAAT	0.193
GATAGGGA	-0.0954
CCGCTACC	0.0857
GAGAAAGC	0.017
CCAGTTGA	-0.0607
GATAGATC	0.0608
ACTCCTGA	0.103
AACCACGT	-0.0931
TACCTGCA	-0.132
ACCCCGCT	-0.187
CACTCGGA	0.131
GACGCGTA	0.173
GCTGATTA	0.0491
AGAAACGG	0.171
CATACTAC	-0.0556
GGTAACAA	0.203
AGTACACG	0.282
AAAATTCT	-0.0579
GAAATCAC	0.157
CGGGGATC	-0.255
CTGTTCCC	-0.115
CAGCTCGA	-0.123
AAGTTGTC	0.298
AGTCGCCG	-0.0359

Sequence	PBM E-score
CTAATTAA	-0.0214
AGGGGAGC	-0.419
CACCGGAG	-0.0567
ACAAACCC	0.247
AACAATAT	0.264
GGACGGCC	-0.247
TACGCCCA	-0.0824
CGGTATAG	-0.0764
CATCCTTC	-0.287
CTTAATGC	0.0167
AAACGGTG	0.0164
AAACAATT	0.0967
CCCCTCAG	-0.343
AACCTGGA	0.119
CATACAAC	0.0723
CCGGATTC	-0.00075
CTCCTACA	-0.187
AGCTTCCC	-0.237
AACCACTT	-0.0717
TGCTACAA	0.0284
AAGTCTAA	0.0915
TGTAGAAA	-0.0523
CGGGTCGC	-0.198
TAGGTAAA	-0.101
TCTCATAA	-0.0283

Sequence	PBM E-score
CAATTTAG	0.121
CCTTCGCC	-0.397
ATGCTCAC	-0.256
ACATCTCC	0.141
ATTCGCGG	0.167
AACGTCAG	-0.248
CATCGTTC	-0.00786
AGCCGCAC	-0.135
AACGCTGT	-0.0252
ATTAGGGC	-0.0238
AATATCCC	-0.0769
ATTGAACC	-0.0628
CAAATGCG	0.0944
TCCTACCA	-0.0959
ATTCCTTG	-0.0502
GCAGTTAA	0.0544
GAAGGAAA	-0.218
GGGTCAAC	0.0297
TGAGGGCA	-0.353
ACATCTAC	0.225
GGGTTCGA	-0.124
CCAGGCAC	-0.124
CCCTCTCG	-0.0829
CTCATTGC	-0.045
GAATTTCA	-0.0153

Sequence	PBM E-score
ATTAGATA	-0.0356
AGCCTCCA	-0.345
CAACCAAC	-0.068
TTCGGAAA	0.0991
AGGACGGG	-0.177
TAGCGTAA	0.0836
CCTGACGA	0.0724
CGCCCTTC	-0.179
CTAGCCTA	-0.0301
GGTACAAC	0.188
CTCTGCGC	0.141
AGTATTGC	0.0171
CCCGCTAG	-0.156
CAGAGTTC	-0.0226
GCTAAAAC	-0.0224
CGCCTCAC	-0.0815
GGTGTCAA	-0.129
GAACTTCA	0.0885
GAGATAGC	-0.267
AGTGCCGA	-0.0137
AAGTTGTG	0.00547
CACACGAC	-0.0129
ATTACACG	0.0529
AACAAATA	0.211
AGGCTTAC	-0.016

Sequence	PBM E-score
AAAAACGT	0.177
CGGCATAC	0.0828
CCGGACTA	0.16
TCCCACGA	0.0741
GCTAGGTA	-0.0437
AGGGTAAG	0.00826
AGATGAAT	-0.128
TAAACGCA	0.11
GAACGTAC	0.0783
CTCTTTAA	0.00419
ATAACTCA	0.0166
TCAATTAA	0.0786
ACTCTTGA	-0.0139
GGGCATAA	-0.0478
ACCACATA	0.0838
CATACGTA	0.111
GTGATCTA	0.00906
ACGCATCG	0.0443
AGGCTGAT	-0.176
